# PMC6919601, “Identification of Plasmodium dipeptidyl aminopeptidase allosteric inhibitors by high throughput screening” (PLoS ONE, 2019)
# Screen size: about 110,000 compounds; about 230 (0.21%) showed an effect of 50% or more. This is one part of the list.
# Target: DPAP1 (Plasmodium falciparum, UniProt Q8IIJ9)
# Assay: primary screen, percent inhibition; read by cleavage of a fluorogenic dipeptide substrate; higher = more effect of the substance
# Design: species or system P. falciparum D10 trophozoite lysates; single well
# 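Further: 30 min substrate incubation versus DMSO and 10 µM JCP410 controls.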
# DPAP1, sequence (Q8IIJ9 whole entry, looked up): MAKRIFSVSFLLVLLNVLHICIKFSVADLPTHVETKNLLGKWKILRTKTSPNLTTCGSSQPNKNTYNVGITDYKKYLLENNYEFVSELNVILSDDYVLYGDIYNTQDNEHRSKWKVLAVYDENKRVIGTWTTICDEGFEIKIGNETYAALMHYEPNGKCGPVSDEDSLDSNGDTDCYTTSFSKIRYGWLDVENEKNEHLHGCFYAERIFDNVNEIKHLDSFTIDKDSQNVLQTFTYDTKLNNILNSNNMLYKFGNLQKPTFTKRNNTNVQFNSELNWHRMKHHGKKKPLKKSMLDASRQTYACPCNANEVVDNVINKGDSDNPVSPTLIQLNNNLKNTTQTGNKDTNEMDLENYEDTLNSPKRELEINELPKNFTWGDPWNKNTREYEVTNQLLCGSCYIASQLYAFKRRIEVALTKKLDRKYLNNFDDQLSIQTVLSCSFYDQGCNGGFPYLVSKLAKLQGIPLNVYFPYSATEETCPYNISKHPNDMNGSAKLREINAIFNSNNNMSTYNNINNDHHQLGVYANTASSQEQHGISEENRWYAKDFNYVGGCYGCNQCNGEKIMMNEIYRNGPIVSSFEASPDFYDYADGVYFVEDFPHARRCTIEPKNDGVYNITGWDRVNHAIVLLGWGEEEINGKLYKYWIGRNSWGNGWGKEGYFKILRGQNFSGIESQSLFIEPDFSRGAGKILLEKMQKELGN
row,Compound,% Inhibition @ 10 uM
1,O=C(CCCn1c(SCC(=O)c2ccccc2)nc2ccsc2c1=O)NCCc1ccccc1,3.54%
2,Cc1ccc(C(=O)/C(=C/c2ccc(F)cc2)n2cncn2)cc1,3.27%
3,COc1ccc(CCNC(=O)CN(C)S(=O)(=O)c2ccc3nc(O)ccc3c2)cc1OC,-5.85%
4,Cc1c(C(c2ccccc2Cl)c2c(C)n(C)n(-c3ccccc3)c2=O)c(=O)n(-c2ccccc2)n1C,-4.87%
5,CCCN1CCC(N2CC=C(c3ccc(F)cc3)CC2)CC1,-1.21%
6,CCc1ccc(-c2cc3c(=O)n(CC(=O)NCc4cccnc4)nc(C)n3n2)cc1,2.27%
7,N#Cc1nc(/C=C/c2ccc(F)cc2)oc1NCCc1ccccc1,-0.808%
8,COc1cc(-c2[nH]nc3c2C(c2ccc(C(F)(F)F)cc2)C(C#N)=C(N)O3)cc(OC)c1OC (centres unmarked),8.6%
9,N#CC1=C(N)Oc2[nH]nc(-c3ccccc3)c2C1c1cc2c(cc1Cl)OCO2 (centres unmarked),-6.34%
10,COc1cccc2c(O)c(C/C=C(/C)Cl)c(C)nc12,5.2%
11,Cc1cc(N)c(O)c(-n2nc3ccccc3n2)c1,-6.75%
12,O=C(O)CCC(=O)Nc1ccc(Br)cc1,-0.0372%
13,N#Cc1c(NC(=S)NC(=O)C23CC4CC(CC(C4)C2)C3)sc2c1CCC2,-1.69%
14,CCOc1ccc(C2c3c(-c4cc(C)ccc4O)n[nH]c3C(=O)N2CCO)cc1OCC (centres unmarked),5.35%
15,Cn1cccc1Cc1nnc(SCC(=O)NCCc2ccccc2)n1C,-2.14%
16,CC(C)NC(=O)c1ccc(C2SCC(=O)N2CCc2ccccc2)cc1 (centres unmarked),-5.21%
17,Cn1c(C(=O)NCc2ccccn2)cc2oc3ccccc3c21,-0.281%
18,COc1ccc(CC(=O)Nc2cccc(NC(C)=O)c2)cc1,4.06%
19,O=C(c1ccc(Br)o1)N1CCN(c2ccc(Cl)cc2)CC1,-2.2%
20,CC(/C=C(\O)c1cccnc1)=N\c1cc(C)ccc1Cl,-4.75%
21,O=P(O)(COc1ccccc1O)c1ccccc1,-4.23%
22,NC(Cc1c[nH]c2ccc(OCc3ccccc3)cc12)C(=O)O (centres unmarked),-3.65%

row,Compound,% Inhibition @ 10 uM
1,COc1cccc(N(CC(=O)Nc2ccc(CC#N)cc2)S(=O)(=O)c2ccc(C)cc2)c1,-18.8%
2,COc1ccccc1-n1nnc(S(=O)(=O)c2ccc(C)cc2)c1C,-3.85%
3,CCCC(=O)Nc1ccc(N(CC)CC)cc1,-3.04%
4,Clc1ccc(-c2cn3c4ccccc4nc3n2CCN2CCCC2)cc1,-5.16%
5,Cc1ccc(Cn2c(=N)n(CC(=O)O)c3ccccc32)cc1,1.34%
6,CC(NC(=O)OCCOc1ccccc1)(C(F)(F)F)C(F)(F)F,-1.33%
7,C=CCNS(=O)(=O)c1sccc1/C=N/O,-1.42%
8,CCSc1nc(O)c(C(C)CC)c(O)n1 (centres unmarked),-0.351%
9,Cn1ccc(C(=O)Nc2sc3c(c2C(N)=O)CCCCC3)n1,47%
10,Cc1cc(/C=C2\NC(=O)N(Cc3ccc(Cl)cc3)C2=O)c(C)n1-c1cccnc1,2.17%
11,CC1C2CC(C(S(=O)(=O)NC(C)(C)C)/C2=N/O)C1(C)C (centres unmarked),0.937%
12,Cc1nn(C)c(C)c1Sc1ccc(Br)cc1,-3.14%
13,CN1CCN(CCOC2c3ccccc3CSc3ccc(Cl)cc32)CC1 (centres unmarked),6.08%
14,O=C(Nc1ccc(-c2cn3cccnc3n2)cc1)c1ccccc1Br,5.07%
15,CC/N=C1\S/C(=C\c2cc(Br)ccc2O)C(=O)N1CC,24.1%
16,COc1cc(-c2nc3ccc4ccccc4c3c3c2CCC3)cc(OC)c1OC,-7.11%
17,O=C(O)CCCNC(=O)c1ccco1,4.74%
18,COc1ccc(NC(=O)CN(c2ccccc2F)S(C)(=O)=O)cc1OC,-3.13%
19,COc1ccccc1C(=O)Nc1ccc2c(c1)C(=O)N(C1CCCCC1)C2=O,-2.32%
20,CCOc1ccc(/C=c2\sc3nc(=O)c(-c4ccccc4)nn3c2=O)cc1OCC,-9.16%
21,COc1ccc(Cl)cc1N(CC(=O)NCc1ccccc1Cl)S(C)(=O)=O,-3.29%
22,COc1cccc(C(=O)Nc2cc(Cl)ccc2Cl)c1,-6.78%

row,Compound,% Inhibition @ 10 uM
1,CCn1c(O)cc(=O)nc1SCc1ccccc1,3.48%
2,CCOP(=O)(O)CCNCc1ccccc1,1.21%
3,COc1ccc(Cc2nn3c(-c4ccccc4)nnc3s2)cc1,6.49%
4,COCCCNC(=O)C1CCCN(c2nnc(C)c3c(C)n(-c4ccccc4)nc23)C1 (centres unmarked),-4.74%
5,C1=C(c2cccc3ccccc23)N2CCN=C2S1,3.06%
6,COc1cc(N2CCN(c3ccncc3S(=O)(=O)N3CCCCC3)CC2)cc(OC)c1OC,-4.07%
7,Cc1ccc(C(=O)Nc2ccc(-c3cn4cccnc4n3)cc2)cc1,1.83%
8,Cc1nnc(N2CCN(C(=O)NCc3ccc(F)cc3)CC2)c2nn(-c3ccccc3)c(C)c12,-2.66%
9,C=CCOc1c(CNc2ccc3[nH]c(O)nc3c2)cccc1OC,-5.15%
10,Cc1ccc(-c2cc(C(=O)N3CCCC3)[nH]n2)cc1C,-1.26%
11,COc1cc(/C=C2\C(=O)ON=C2C)ccc1O,2.09%
12,O=c1c2c3c(sc2nc2c4ccccc4c(Cl)nn12)CCCC3,3.79%
13,FC(F)(F)c1nc(Nc2cc(Cl)ccc2Cl)sc1-c1ccccc1,3.25%
14,O=C(Nc1ccc2c(c1)OCCO2)C1CCCO1 (centres unmarked),-2.43%
15,Cc1ccc(S(=O)(=O)CCc2nnc(NC(=O)c3ccc(Br)cc3)s2)cc1C,-0.467%
16,O=C(/C=C/N1CCOCC1)c1ccc(-c2ccccc2)cc1,3.65%
17,COC(=O)c1ccc(Cn2nnc(-c3ccc(OCc4ccccc4F)cc3)n2)cc1,-2.5%
18,CCc1c(C(=O)N2CCC(Cc3ccccc3)CC2)[nH]c(C)c1C(C)=O,-1.51%
19,CCc1ccc(C(=S)Nc2ccccc2)nc1,1.8%
20,COc1ccc(S(=O)(=O)NCc2ccc(C(=O)NCCN(C)Cc3ccccc3)cc2)cc1,0.208%
21,CCN(CC)c1ccc(CN2CCN(c3ccccc3F)CC2)cc1,-5.94%
